Source: US20230003721A1, “MITOTHERAPEUTICS FOR THE TREATMENT OF BRAIN DISORDERS” (The University of Florida Research Foundation, Inc., priority 2019, published 2023)

test system: primary neurons; details: 10 μM Aβ(1-42), 12.5 μM compound, 48 h co-treatment

Q: Which “protection from Aβ(1-42) induced mitochondrial fragmentation” value (“protection” below) does the source give for `O=C(/C=C/c1ccccc1)c1ccc(O)cc1` [4′-HYDROXYCHALCONE] here?
A: complete protection

Q: `O=C(/C=C/c1ccccc1)c1ccc(O)cc1O` [2′,4′-DIHYDROXYCHALCONE] was tested. Which “protection” value did it give?
A: complete protection

Q: How did the “protection” value turn out when `COc1cc(O)c2c(=O)c(O)c(-c3ccc(O)c(O)c3)oc2c1` [RHAMNETIN] was run?
A: complete protection
